Reference: PubChem BioAssay AID1345082 (National Center for Advancing Translational Sciences (NCATS), 2018)
Screen size: about 94,000 compounds; about 4,000 (4.3%) were called active. The shares of active, inactive and inconclusive entries below differ from those in the screen. The call rests on the fitted dose curve; in most records, active means well fitted inhibition curve with a large enough effect; inconclusive means small, poorly fitted or top-dose-only effect; inactive means no such curve, though single readings can be large or run the other way. Where the call is inconclusive, the potency comes from a doubtful curve fit.

experiment: Cytotoxic Profiling in NIH 3T3 Cell Line of Diverse Libraries Using Quantitative High-Throughput Screening; conditions: NIH 3T3 viability, CellTiter-Glo ATP luminescence, 48-72 h; activity change, negative = cytotoxicity: at 96.7 µM (top of the series) unless noted; series mostly up to 96.7 µM; further: nearly all actives have a fitted effect of over 55% in size
Outline: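 Mouse fibroblast NIH 3T3 cells, 400 per well, received compound via pintool and were incubated for 48 or 72 hr prior to CellTiter-Glo ATP luminescence measurement.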
On the % scale 0 is the no-effect control and ±100 the full control effect; potency means the concentration at half of the fitted maximal effect; tags describe the fitted curve by direction and shape.

| SMILES | Potency | activity change, negative = cytotoxicity | outcome |
| --- | --- | --- | --- |
| CCCC1C=CCN1C(=O)c1cc(-c2ccncc2)nc2ccccc12 (stereo not given) | inconclusive: 79.4 µM [inhibitor, partial curve] |  |  |
| O=C(Nc1ccc2c(c1)CN(Cc1ccc3c(c1)OCO3)C(=O)CO2)c1ccc(F)cc1 | inconclusive: 50.1 µM [inhibitor, partial curve, poor fit] |  |  |
| Cc1cccc(C(C(=O)NCc2cc(-c3cccc(F)c3)no2)N(C)C)c1 (stereo not given) | inconclusive: 50.1 µM [inhibitor, partial curve, poor fit] |  |  |
| COc1ccccc1-c1ccc2ncc(Nc3cc(F)cc(N4CCOCC4)c3)n2n1 | inconclusive: 39.8 µM [inhibitor, full curve] |  |  |
| O=C(NCc1ccc(Cl)cc1)c1ccc2nnc(-c3ccoc3)n2c1 | inconclusive: 31.6 µM [inhibitor, full curve, poor fit] |  |  |
| O=C1Nc2ccccc2CC12CCN(CC1CCCCC1)C2 (stereo not given) | inconclusive: 89.1 µM [inhibitor, partial curve, poor fit] |  |  |
| CC(C)CC(=O)N[C@H](C)c1onc(-c2cccnc2)c1C(=O)O |  | inactive: -0.94% [at 174 µM] |  |
| CN1CCN(Cc2nnc(C(=O)N3CCC[C@@H]3c3ccc(Br)cc3)n2Cc2ccccc2)CC1 | inconclusive: 70.8 µM [inhibitor, single point] |  |  |
| Cc1ccc(C(=O)N2CCC(N3CC(OCC4CC4)C34CCCCC4)CC2)cn1 (stereo not given) | inconclusive: 50.1 µM [inhibitor, partial curve, poor fit] |  |  |
| Cc1onc(-c2cnn(C)c2NCc2ccccc2)c1C(=O)N1CCN(CCO)CC1 | inconclusive: 112 µM [inhibitor, single point] |  |  |
| CC(NC(=O)c1coc(COc2ccc(F)cc2Cl)n1)c1cnn(C)c1 (stereo not given) | inconclusive: 63.1 µM [inhibitor, partial curve, poor fit] |  |  |
| COCCN1Cc2nc(-c3ccsc3)ccc2OCC1=O | inconclusive: 100 µM [inhibitor, partial curve, poor fit] |  |  |
| CCOc1ccccc1CN1CCC2(CCN(CCC(C)C)CC2)Oc2ccccc21 | inconclusive: 31.6 µM [inhibitor, partial curve, poor fit] |  |  |
| CN(C)c1ccc(CN2CCC3(C2)C(=NC2CCCCC2)NC(=O)N3c2cc(F)cc(F)c2)cc1 (stereo not given) | inconclusive: 31.6 µM [inhibitor, full curve, poor fit] |  |  |
| CC(C)C(=O)N1Cc2ccccc2CC2(CCCCN2Cc2ccccn2)C1 (stereo not given) |  | inactive: -18.8% |  |
| CC(C)NC(=O)NC1CC2(CCN(C(=O)C3CCN(C)CC3)CC2)c2ccccc21 (stereo not given) |  |  | inactive |
| CSc1ccc(-c2cccc(C(=O)NCC(=O)NCc3ccccc3)c2)cc1 | inconclusive: 17.8 µM [inhibitor, full curve, poor fit] |  |  |
| Cc1cccc(NC(=O)c2ccc(CN3C(=O)NC4(CCOCC4)C3=O)cc2)c1 |  | inactive: -4.41% |  |
| COc1cccc(NC(=O)Cn2c(-c3ccccc3)nc(C)c(CCO)c2=O)c1 | inconclusive: 50.1 µM [inhibitor, partial curve, poor fit] |  |  |
| CCOc1nccn2c(-c3ccc(CNc4ccc(OC)nc4)cc3)cnc12 | inconclusive: 56.2 µM [inhibitor, partial curve, poor fit] |  |  |

| SMILES | Potency | activity change, negative = cytotoxicity | outcome |
| --- | --- | --- | --- |
| Cc1ccccc1-c1cc2c(ccn2C)c(C(=O)NCCc2cnc[nH]2)n1 | inconclusive: 100 µM [inhibitor, partial curve] |  |  |
| CC1=C[C@@H](CNCc2ccco2)[C@H](C(C)C)C[C@H]1Cc1nnc(C(C)(C)C)o1 | active: 100 µM |  |  |
| C=CCNC(=O)N1CC[C@H]2CC(=O)N([C@H](C(N)=O)C(C)C)CC[C@H]2C1 |  | inactive: 0.664% [at 138 µM] |  |
| N#Cc1cccnc1N1CCN(c2nccc(N3CCCC(O)C3)n2)CC1 (stereo not given) | inconclusive: 50.1 µM [inhibitor, partial curve, poor fit] |  |  |
| CCN(CCn1cccn1)Cc1cnc(S(=O)(=O)Cc2ccccc2)n1CC(C)C | inconclusive: 50.1 µM [inhibitor, partial curve, poor fit] |  |  |
| O=C(Nc1ccccn1)[C@@H]1C[C@@H](c2ccc(F)cc2)N([S+](=O)([O-])c2ccccc2)C1 | inconclusive: 89.1 µM [inhibitor, single point] |  |  |
| COc1ccccc1CC(=O)N1CCC(c2n[nH]c(=O)n2Cc2ccc(C)cc2)CC1 | inconclusive: 79.4 µM [inhibitor, partial curve, poor fit] |  |  |
| COc1cc(CCC(=O)N2C[C@@H](C(N)=O)[C@H](c3n[nH]c(C)n3)C2)on1 |  | inactive: -12.8% |  |
| CC1CCCN(C(=O)C2CCCN(c3cnc4nccnc4c3)C2)C1 (stereo not given) |  | inactive: -18.8% |  |
| Cc1nc(-c2ccc(F)cc2)n(CC(=O)Nc2cccc(C#N)c2)c(=O)c1CCO | inconclusive: 44.7 µM [inhibitor, partial curve, poor fit] |  |  |
| Cc1ccc(C(=O)N2CCC(Cc3nc(-c4cnccn4)no3)CC2)c(C)c1 |  | inactive: -13.2% |  |
| CN1CCCCCC(O)c2cc(C(=O)NCc3nc4ccccc4n3C)ccc21 (stereo not given) | inconclusive: 56.2 µM [inhibitor, partial curve, poor fit] |  |  |
| CCCn1cc(-c2ccnc(NCc3cccc(C)c3)n2)c(C)n1 | inconclusive: 44.7 µM [inhibitor, partial curve, poor fit] |  |  |
| O=C(CN1C(=O)NC(c2ccc(Cl)cc2)C2=C1COC2=O)Nc1cc(F)cc(F)c1 (stereo not given) | active: 25.1 µM |  |  |
| Cc1noc(-c2cccs2)c1C(=O)NC(C)c1cccc2ccccc12 (stereo not given) | inconclusive: 50.1 µM [inhibitor, partial curve, poor fit] |  |  |
| CN(C)CC(=O)N1Cc2ccccc2CC2(CCCN(CC3CCNC3)C2)C1 (stereo not given) |  | inactive: 1.85% |  |
| N[S+](=O)([O-])c1ccc(C(=O)N2CC(c3ncc4c(-c5ccccc5)nccn34)C2)cc1 | inconclusive: 89.1 µM [inhibitor, partial curve, poor fit] |  |  |
| Cc1noc2c(NC(C)C)cc(-c3cccs3)nc12 | inconclusive: 100 µM [inhibitor, partial curve] |  |  |
| O=C(Nc1cccc(-c2nnc3n2CCCC3)c1)c1cc(F)ccc1F |  | inactive: -8.12% |  |
| CS(=O)(=O)N1CC2(CCN(CC3CC3)CC2)Cc2ccccc21 |  | inactive: 3.29% |  |
